Laboratory results from PubChem BioAssay AID588795 (National Center for Advancing Translational Sciences (NCATS), 2011).
The campaign covered roughly 390,000 compounds. About 1,400 (0.36%) were called active. Inconclusive results, whose numbers are uncertain, are shown with a selection of clear calls. The call rests on the fitted dose curve; in most records, active means well fitted inhibition curve with a large enough effect; inconclusive means small, poorly fitted or top-dose-only effect; inactive means no such curve, though single readings can be large or run the other way. Where the call is inconclusive, the potency comes from a doubtful curve fit.

What follows are molecules tested against Flap endonuclease 1 (Homo sapiens) (UniProt P39748) (assay: qHTS Assay for the Inhibitors of Human Flap endonuclease 1 (FEN1).). Settings: Recombinant FEN1 flap cleavage, fluorescence, 15 min; series mostly up to 114 µM.
Sequence of UniProt P39748 (P39748 whole entry, looked up): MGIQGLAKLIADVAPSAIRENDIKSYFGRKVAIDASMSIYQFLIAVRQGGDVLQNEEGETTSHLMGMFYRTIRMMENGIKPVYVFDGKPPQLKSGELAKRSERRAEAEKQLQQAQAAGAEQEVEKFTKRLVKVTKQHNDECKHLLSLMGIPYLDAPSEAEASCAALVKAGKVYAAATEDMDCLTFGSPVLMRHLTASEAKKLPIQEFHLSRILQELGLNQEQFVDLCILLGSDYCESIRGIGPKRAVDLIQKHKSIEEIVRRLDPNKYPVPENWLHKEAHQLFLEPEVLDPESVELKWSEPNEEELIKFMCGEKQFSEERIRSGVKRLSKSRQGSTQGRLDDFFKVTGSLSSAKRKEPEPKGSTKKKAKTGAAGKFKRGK
Method in brief: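 Nuclease activity of 10 nM FEN1 was measured after 15 min of room-temperature exposure to titrated compounds, by adding 50 nM flap substrate and reading plates at 0 and 15 min.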
Further: nearly all actives have a fitted effect of over 65% in size.
Potency means the concentration at half of the fitted maximal effect; tags describe the fitted curve by direction and shape.

SMILES | Potency
O=C1ON=C(c2ccccc2)/C1=C/c1ccc(O)c(O)c1 | inconclusive: 20 µM [inhibitor, full curve, poor fit]
C=CCC[C@H](Cc1ccc(F)cc1)C(=O)OC[C@H](Cc1c[nH]c2ccccc12)NC(=O)[C@@H](CC=C)CC(=O)N(CCO)Cc1ccccc1 | inconclusive: 35.5 µM [inhibitor, partial curve, poor fit]
Clc1ccc(OCCCc2nc(-c3cccnc3)no2)c(Cl)c1 | inconclusive: 79.4 µM [inhibitor, partial curve, poor fit]
Cn1c(C(c2cc3ccccc3n2C)c2cc3ccccc3n2C)cc2ccccc21 | inactive
CC(C)C[C@H](NC(=O)c1nc[nH]c1C(=O)NCc1ccc(CNC(=O)OC(C)(C)C)cc1)C(=O)OC(C)(C)C | inconclusive: 56.2 µM [inhibitor, partial curve, poor fit]
CC(C(=O)NCc1ccccc1Cl)n1ccc2cc(S(=O)(=O)N3CCCCC3)ccc21 (stereo not given) | inactive
COc1cc(OC)cc(-c2cc3ccc(F)cc3cn2)c1 | inconclusive: 22.4 µM [inhibitor, partial curve, poor fit]
CCN1/C(=C/c2cc[n+](C)cc2)C=Cc2cc(C)ccc21 | inconclusive: 79.4 µM [inhibitor, partial curve, poor fit]
O=C(CN(CC1CCCO1)C(=O)CCC(=O)Nc1nccs1)NCc1ccccc1 (stereo not given) | inactive
O=C(Nc1ccccc1)C1=C[C@H](c2ccccc2)C[C@H](OCc2ccc(CO)cc2)O1 | inconclusive: 79.4 µM [inhibitor, partial curve, poor fit]
C=CCNC(=O)[C@@H]1CSC2c3ccc(OC)c(OC)c3C(=O)N21 (stereo not given in full) | inactive
COc1ccc(NC(=O)c2nc[nH]c2C(=O)N[C@@H](CC(C)C)C(=O)OC(C)(C)C)cc1 | inconclusive: 25.1 µM [inhibitor, partial curve, poor fit]
COc1cccc(Cn2c(=O)n(CC3CCC(C(=O)N4CCCCC4)CC3)c(=O)c3sccc32)c1 (stereo not given) | inconclusive: 79.4 µM [inhibitor, partial curve]
Cc1c(CC(=O)N2CCN(C(=O)C3COc4ccccc4O3)CC2)c(=O)oc2cc(O)c(Cl)cc12 (stereo not given) | inactive
Cc1cc(C)cc(N2CC(O)=C(c3nc4ccccc4c(=O)[nH]3)C2=N)c1 | inconclusive: 28.2 µM [inhibitor, full curve]
Cc1nn(-c2ccccc2)c2nc(C(F)F)cc(C(F)F)c12 | inactive
Cc1ccc(C)c(C(=O)Cn2ncc(Cl)c(Cl)c2=O)c1 | inactive
CN(C)CCCN(C(=O)c1ccco1)c1nc2c(F)cccc2s1 | inconclusive: 89.1 µM [inhibitor, single point]
COc1cccc(CCNC(=O)Cn2c(-c3cccs3)cc3ccccc32)c1 | inconclusive: 89.1 µM [inhibitor, single point]
CC(C)[C@H]1c2ccc(F)cc2CC[C@@]1(CCN(C)CCCc1nc2ccccc2[nH]1)OC(=O)C1CC1 | inconclusive: 44.7 µM [inhibitor, partial curve, poor fit]
COc1ccccc1CNC(=O)C1CCN(S(=O)(=O)c2c(C)noc2/C=C/c2c(C)cc(C)cc2C)CC1 | inactive
c1ccc(-c2csc3ncnc(Sc4nnnn4-c4ccccc4)c23)cc1 | inconclusive: 89.1 µM [inhibitor, single point]

SMILES | Potency
O=C(N/N=C/c1ccncc1)c1cccc(N/N=C/c2ccncc2)c1 | inconclusive: 89.1 µM [inhibitor, single point]
O=C(CCC1CCCC1)N1CCc2c([nH]c3ccccc23)C1c1ccc(Cl)cc1 (stereo not given) | inactive
CC1=NNC(=O)C1Oc1ccccc1 (stereo not given) | inactive
CCOC(=O)C1CCCN(S(=O)(=O)c2ccc(N3CCCCS3(=O)=O)cc2)C1 (stereo not given) | inactive
CCN(C(=O)Cn1ncc2c(=O)oc3ccc(C)cc3c21)c1cc(OC)ccc1OC | inactive
CC1CN(c2ccc([N+](=O)[O-])c(NCCOc3ccc(Cl)cc3)c2)CC(C)N1 (stereo not given) | inconclusive: 39.8 µM [inhibitor, single point]
O=c1c(O[C@@H]2O[C@H](CO)C(O)C2O)c(-c2ccc(O)c(O)c2)oc2cc(O)cc(O)c12 (stereo not given in full) | inconclusive: 39.8 µM [inhibitor, single point]
Oc1c(C(c2ccccn2)N2CCC(Cc3ccccc3)CC2)cc(Cl)c2cccnc12 (stereo not given) | inactive
Cc1ccc(Cl)cc1-n1c(=O)c2sc3ccccc3c2n(CC(=O)NC2CCCCC2)c1=O | inconclusive: 89.1 µM [inhibitor, single point]
Cc1cccc(C)c1NC(=O)c1nc(S(C)(=O)=O)ncc1N(Cc1ccc(F)cc1)Cc1ccco1 | inconclusive: 89.1 µM [inhibitor, partial curve, poor fit]
CCCc1nc2ccc(NC(=O)NCCC(=O)OCC)cc2c(=O)n1Cc1cccc(Cl)c1 | inconclusive: 56.2 µM [inhibitor, partial curve, poor fit]
CCc1cc(C(=O)N=Nc2c(O)[nH]c3ccc([N+](=O)[O-])cc23)c2ccccc2n1 | inconclusive: 56.2 µM [inhibitor, partial curve, poor fit]
CCOc1ccc(/C=N/NC(=O)c2cc3c(OC)cc(OC)cc3[nH]2)cc1OC | inconclusive: 22.4 µM [inhibitor, full curve]
CCCn1c2ccccc2c2nc3ccccc3nc21 | inconclusive: 39.8 µM [inhibitor, partial curve]
OC(CN1CCN(c2ccccn2)CC1)Cn1c2ccccc2c2ccccc21 (stereo not given) | inconclusive: 31.6 µM [inhibitor, single point]
CCN(CC)C(=O)c1c(NC(=O)c2cccc(C)c2)sc2c1CCC(C)C2 (stereo not given) | inactive
Cc1nnc(SCC(=O)Nc2sccc2C#N)s1 | inconclusive: 70.8 µM [inhibitor, single point]
COc1ccc(CC(=O)Nc2ccc(S(=O)(=O)Nc3nccc(C)n3)cc2)cc1 | inactive
COc1cc(C2NC(=O)NC3=C2C(=O)OC3)cc(OC)c1OC (stereo not given) | inactive
CC(=O)N1CCN(c2ncnc3sc(-c4ccccc4)cc23)CC1 | inconclusive: 79.4 µM [inhibitor, single point]
C=C(C)COc1ccc(-c2[nH]ncc2Oc2cccc(OC)c2)c(O)c1 | inconclusive: 50.1 µM [inhibitor, partial curve, poor fit]
O=Cc1cn(-c2ccccc2)nc1-c1ccc2c(c1)OCCO2 | inconclusive: 89.1 µM [inhibitor, partial curve, poor fit]

SMILES | Potency
CCOC(=O)C1CCCN(c2nc3c(S(=O)(=O)c4ccc(CC)cc4)nnn3c3ccc(Cl)cc23)C1 (stereo not given) | inconclusive: 89.1 µM [inhibitor, single point]
N#Cc1nc(-c2ccccc2)cc(-c2ccccc2)n1 | inactive
O=C(COC(=O)CCS(=O)(=O)c1ccccc1)Nc1ccc(N2CCCCC2)cc1 | inactive
O=C(Nc1ccc(S(=O)(=O)Nc2ncccn2)cc1)c1ccc(N2CCCC2=O)cc1 | inactive
C/C(=C1/C=Nc2ccccc21)c1ccc(N(C)C)cc1 | inconclusive: 3.55 µM [inhibitor, partial curve, poor fit]
NNc1nc2c(Cl)c(Cl)ccc2s1 | inconclusive: 79.4 µM [inhibitor, partial curve]
COc1cc(-c2nc3ccccn3c2NCc2ccccc2)ccc1SC1CCCCC1 | inconclusive: 44.7 µM [inhibitor, partial curve, poor fit]
Cc1c(C(=O)OCCOc2ccccc2)[nH]c2c1C(=O)CC(c1ccc(C(C)(C)C)cc1)C2 (stereo not given) | inconclusive: 79.4 µM [inhibitor, partial curve]
NC(=S)NN=C1CCCCCCCCC1 | inconclusive: 89.1 µM [inhibitor, single point]
Cc1ccc2nc(-c3ccsc3)c(Nc3ccccc3C)n2c1 | inconclusive: 112 µM [inhibitor, partial curve, poor fit]
Cc1ccc(N=C2NC(=O)/C(=C/c3cn(C)c4ccccc34)S2)cc1C | inconclusive: 44.7 µM [inhibitor, partial curve, poor fit]
Oc1ccc(COCc2ccccc2)c2cccnc12 | inconclusive: 20 µM [inhibitor, partial curve, poor fit]
NC1=NC(=O)/C(=C\c2ccc(-c3ccccc3[N+](=O)[O-])o2)S1 | inconclusive: 10 µM [inhibitor, full curve]
COCC(=O)Oc1c(Sc2ccc(C)cc2)c(C)nn1C(C)(C)C | inconclusive: 14.1 µM [inhibitor, full curve, poor fit]
CCSc1nc2c(c(=O)[nH]c(=O)n2C)n1CC(O)COc1ccccc1C (stereo not given) | inactive
O=C(CSc1nc2ccccc2c(=O)[nH]1)c1ccc(O)c(O)c1 | inconclusive: 44.7 µM [inhibitor, partial curve]
CC(=O)N(C(C)=O)N1C(=O)/C(=C/c2ccc(Cl)cc2)SC1=S | inconclusive: 50.1 µM [inhibitor, partial curve]
N#Cc1ccc(NC(=O)COc2ccccc2C(=O)Nc2ccccc2)cc1 | inactive
C=C(C)C(=O)Nc1cccc(C2=NOC3(C2)C[C@@H](C(N)=O)N(C(=O)c2ccc(OC)cc2)C3)c1 (stereo not given in full) | inconclusive: 39.8 µM [inhibitor, partial curve]
C=CCc1ccccc1OCCSc1nc(-c2ccc(C(C)(C)C)cc2)nc2cc(=O)[nH]n12 | inconclusive: 25.1 µM [inhibitor, full curve]
COc1ccc(NC(=O)/C=C/c2cccc(F)c2)cn1 | inactive
